From PMC4336329 (PLoS ONE, 2015) come the findings set out here.

The campaign covered roughly 310,000 compounds. About 2,200 (0.71%) showed an effect of 50% or more. Effects have a minus sign here. Some of the results follow.

The target of this assay is human ether-à-go-go-related gene (hERG) potassium channel (human, UniProt Q12809). Put plainly: primary screen, population patch clamp on CHO cells stably expressing hERG.
human ether-à-go-go-related gene (hERG) potassium channel, sequence (Q12809 whole entry, looked up): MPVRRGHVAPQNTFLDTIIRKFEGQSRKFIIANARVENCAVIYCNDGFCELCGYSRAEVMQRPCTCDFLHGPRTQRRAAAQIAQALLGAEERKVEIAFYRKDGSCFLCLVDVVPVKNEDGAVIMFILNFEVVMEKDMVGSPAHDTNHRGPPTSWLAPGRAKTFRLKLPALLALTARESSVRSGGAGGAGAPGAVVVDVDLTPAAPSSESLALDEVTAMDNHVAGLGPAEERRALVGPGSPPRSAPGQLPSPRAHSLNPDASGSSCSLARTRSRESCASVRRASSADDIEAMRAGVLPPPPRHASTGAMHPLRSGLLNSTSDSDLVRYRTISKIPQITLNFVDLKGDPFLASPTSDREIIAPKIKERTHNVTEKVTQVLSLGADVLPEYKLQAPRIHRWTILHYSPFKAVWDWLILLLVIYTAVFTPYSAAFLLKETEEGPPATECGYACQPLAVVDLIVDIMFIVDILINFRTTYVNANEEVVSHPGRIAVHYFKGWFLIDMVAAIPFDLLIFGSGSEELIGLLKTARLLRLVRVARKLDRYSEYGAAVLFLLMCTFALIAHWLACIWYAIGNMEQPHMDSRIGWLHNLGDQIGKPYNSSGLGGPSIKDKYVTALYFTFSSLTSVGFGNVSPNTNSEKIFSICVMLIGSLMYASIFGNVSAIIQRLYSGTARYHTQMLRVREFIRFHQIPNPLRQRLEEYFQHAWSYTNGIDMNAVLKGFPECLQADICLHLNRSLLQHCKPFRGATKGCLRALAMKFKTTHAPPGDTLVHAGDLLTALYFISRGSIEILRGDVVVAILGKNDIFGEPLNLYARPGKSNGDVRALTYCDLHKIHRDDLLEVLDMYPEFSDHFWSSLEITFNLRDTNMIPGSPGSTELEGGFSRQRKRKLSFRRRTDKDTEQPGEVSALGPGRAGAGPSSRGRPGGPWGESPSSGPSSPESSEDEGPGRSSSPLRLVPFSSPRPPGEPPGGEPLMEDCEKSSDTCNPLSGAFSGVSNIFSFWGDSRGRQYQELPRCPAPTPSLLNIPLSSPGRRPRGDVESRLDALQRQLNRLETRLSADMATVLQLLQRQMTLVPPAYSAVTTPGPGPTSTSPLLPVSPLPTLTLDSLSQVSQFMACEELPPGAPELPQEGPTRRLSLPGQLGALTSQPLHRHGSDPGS
`Cc1ccc(SCc2cc(=O)n3[nH]cnc3n2)cc1`: the “hERG current change (%, negative = inhibition) at 1uM” value amounted to 2.45%. The same measure for `CCSc1nc2ccc(OC)cc2cc1C#N`: 3.44%; for `CCOC(=O)C1=C(C)NC(SC)=NC1c1ccc(OC)cc1.I` (centres unmarked): 8.97%; for `CCNC(=S)N1CCN(Cc2ccc3c(c2)OCO3)CC1`: 23.4%.

Regarding `COc1cccc(CC2(CO)CCCN(S(=O)(=O)N(C)C)C2)c1` (centres unmarked), the “hERG current change (%, negative = inhibition) at 1uM” value is reported as 40.5%. In the case of `O=C(c1cccnc1)C1Cc2ccccc2C1=O` (centres unmarked), the “hERG current change (%, negative = inhibition) at 1uM” value came out at 7.83%.

Consider `CC1=NOC(=O)/C1=C/c1ccc(-c2ccc(Cl)cc2)o1`, for which the “hERG current change (%, negative = inhibition) at 1uM” value worked out at 13.4%.

Consider `CCN1C(=O)C(=C2C=C(C)N(Cc3ccco3)C(C)=C2)C(=O)N(CC)C1=S`, for which the “hERG current change (%, negative = inhibition) at 1uM” value came out at 3.32%.

On to `CC(C)C[C@H](NC(=O)C1CC(=O)N(c2ccc3c(c2)OCCO3)C1)C(=O)NC1CCCC1` (some centres unmarked), for which the “hERG current change (%, negative = inhibition) at 1uM” value is 12.2%. As for `CC(C)Cn1c2c(c(=O)[nH]c1=O)C(C(F)(F)F)(C(F)(F)F)N=C(CCC1CCCCC1)N2`, the “hERG current change (%, negative = inhibition) at 1uM” value was determined as 7.42%.

Consider `Cc1cc(OCC(=O)Nc2ccc(F)c(F)c2)nc(C(C)C)n1`, for which the “hERG current change (%, negative = inhibition) at 1uM” value is recorded as 17%. Take `CC(C)(C)SCCNS(=O)(=O)c1ccccc1`: the “hERG current change (%, negative = inhibition) at 1uM” value came out at 16.2%. With `CCOC(=O)CSc1nc(-c2ccccc2)nc2ccc(C)cc12` the figure was 12.7%; with `Cc1ccc(OCCC(=O)N2CCN(c3ccc(O)cc3)CC2)cc1`, 4.2%. With `COc1ccc(N2C(=O)C(CC(=O)Nc3ccccc3)N(Cc3ccc(OC)c(OC)c3)C2=O)cc1` (centres unmarked) the figure was 12.7%; with `Cc1cc(C)nc(-n2nc(C)cc2NC(=O)c2ccc(F)cc2F)n1`, 2.98%.

As to `CC1CCN(c2ncnc3nc[nH]c23)CC1`, the “hERG current change (%, negative = inhibition) at 1uM” value is listed as 2.12%.

`Cc1ccc(S(=O)(=O)c2c(N)n(CCCN(C)C)c3nc4ccccc4nc23)cc1`: the “hERG current change (%, negative = inhibition) at 1uM” value is given as -1.47%. In the case of `Cn1c(=O)c2c(nc(Sc3ncccn3)n2Cc2ccccc2Cl)n(C)c1=O`, the “hERG current change (%, negative = inhibition) at 1uM” value is -0.59%. The same measure for `Cc1ccsc1/C=C(\CC(=O)O)c1nc2ccccc2o1`: 11.2%; for `Cl.Cn1cnc([N+](=O)[O-])c1SCC(=O)NN`: 12.3%.

Consider `CC(=O)c1cn(CC(=O)NCc2cccnc2)c2ccccc12`, for which the “hERG current change (%, negative = inhibition) at 1uM” value stood at 7.44%.

With `Cc1sc2ncnc(SC(C)C#N)c2c1C` (centres unmarked), the “hERG current change (%, negative = inhibition) at 1uM” value came to 21.1%. For the compound `CC(=O)Nc1ccc(C(=O)Nc2ccc(S(=O)(=O)N3CCCCC3)cc2)cc1`, the “hERG current change (%, negative = inhibition) at 1uM” value was found to be 7.96%. The same measure for `O=C1CSC(=S)N1/N=C/c1ccc(Cl)c([N+](=O)[O-])c1`: 2.01%. As to `Cc1ccc(Cn2cc(C(=O)NN)c(=O)c3ccc(F)cc32)cc1`, the “hERG current change (%, negative = inhibition) at 1uM” value is reported as 3.23%. For `C=CCNS(=O)(=O)c1ccc2nsnc2c1`, the “hERG current change (%, negative = inhibition) at 1uM” value is 9.21%. For the compound `CNC(=O)c1ccccc1NC(=O)c1ccco1`, the “hERG current change (%, negative = inhibition) at 1uM” value was determined as 7.27%. Turning to `COc1cccc2c1Oc1ncccc1N(C(=O)CCC(=O)NCc1cccc(C)c1)C2`, the “hERG current change (%, negative = inhibition) at 1uM” value came to 4.21%. With `Cc1cccc2sc(N(CCCN(C)C)C(=O)c3ccc(C(=O)c4ccccc4)cc3)nc12` the figure was 8.43%; with `CCOc1ccccc1NC(=O)N1CCCC1C(=O)Nc1nnc(CC)s1` (centres unmarked), 3.06%; with `Cc1ccc(S(=O)(=O)N(C)CC(=O)OCC(=O)NCCN2C(=O)CSC2=O)cc1`, 4.17%.

As for `Cc1ccc(CSc2nnc(C)c(=O)n2N)cc1`, the “hERG current change (%, negative = inhibition) at 1uM” value is 12.7%.

Take `COc1ccc(CCNC(=O)c2coc3ccccc3c2=O)cc1OC`: the “hERG current change (%, negative = inhibition) at 1uM” value is 3%. With `CCCc1cc(=O)oc2c3c(cc(OCC(=O)N[C@@H](CSC)C(=O)O)c12)OC(C)(C)CC3` the figure was 12.5%; with `Cc1cccc(NC(=O)C(C)Sc2nnc(-c3cccnc3)o2)c1` (centres unmarked), 8.45%. With `CC(C)C(=O)Nc1cccc2nsnc12` the figure was 13.3%; with `CSc1ncc(Cl)c(C(=O)Nc2ccc(S(=O)(=O)N3CCOCC3)cc2)n1`, 5.04%. Turning to `CCOC(=O)CC(Nc1nc(N2CCOCC2)nc(N2CCOCC2)n1)c1ccccc1Cl` (centres unmarked), the “hERG current change (%, negative = inhibition) at 1uM” value is 8.77%.

As to `Cc1nn(-c2ccccc2)c(C)c1-c1cc(C(=O)N/N=C/c2cccnc2)[nH]n1`, the “hERG current change (%, negative = inhibition) at 1uM” value is on record as 7.46%.

Consider `O=C(CS(=O)c1ccc(C(F)(F)F)cc1[N+](=O)[O-])Oc1ccccc1` (centres unmarked), for which the “hERG current change (%, negative = inhibition) at 1uM” value was found to be 6.78%. With `Cc1sc2nc(-c3ccco3)oc(=O)c2c1C` the figure was 12%.

For `Cc1ccc(C)c(S(=O)(=O)ON2C(=O)c3ccccc3C2=O)c1`, the “hERG current change (%, negative = inhibition) at 1uM” value was determined as 1.91%.

`O=C(N/C(=C\c1ccccc1)C(=O)N1CCN(CCO)CC1)c1ccccc1`: the “hERG current change (%, negative = inhibition) at 1uM” value was 2.9%. With `CCCCCN1CC(O)=C(c2nc3ccccc3[nH]2)C1=N` the figure was 8.25%; with `COc1cccc(NC(=O)COC(=O)c2c(F)cccc2Cl)c1`, 13.1%. With `CC(C)CC(O)(c1ccccc1)C(CN1CCOCC1)c1ccccc1.Cl` (centres unmarked) the figure was 6.22%; with `O=C(CN1C(=O)c2ccccc2C1=O)OCC(=O)c1ccccc1`, -3.21%; with `CC1(C)Cc2c(sc3[nH]c(=O)n(CC(=O)NCC4CCCO4)c(=O)c23)CO1` (centres unmarked), 3.94%. Consider `CC(=O)N1CCN(C(=O)c2ccc(S(=O)(=O)Nc3cccc(C(F)(F)F)c3)cc2)CC1`, for which the “hERG current change (%, negative = inhibition) at 1uM” value is 24.2%. The same measure for `COC(=O)c1cccc(NC(=O)Cn2nnc3ccccc32)c1`: 5.54%; for `C=CCn1c(N)cc(=O)nc1SCC(=O)Nc1ccc(C(=O)OC)cc1`: -9.28%; for `CCOC(=O)Cc1csc(N/N=C/c2cccc([N+](=O)[O-])c2)n1`: 15.7%.

As for `O=C(N/N=C/c1ccncc1)c1nn(Cc2ccccc2)c(=O)c2ccccc12`, the “hERG current change (%, negative = inhibition) at 1uM” value was determined as 12.2%. In the case of `N#CCCN(C(=O)CSc1ccc2c(c1)OCCO2)c1ccccc1`, the “hERG current change (%, negative = inhibition) at 1uM” value worked out at 5.26%. As to `COCCNC(=O)C1=NOC(Cn2cc(C#N)c(=O)n(C)c2=O)C1` (centres unmarked), the “hERG current change (%, negative = inhibition) at 1uM” value came to 18.7%.

Regarding `O=C(O)c1ccc(S(=O)(=O)N2CCN(c3ccccn3)CC2)cc1`, the “hERG current change (%, negative = inhibition) at 1uM” value is on record as 17%. With `Cc1ccc2c(c1)N(CC(=O)N1CCCCCC1)C(=O)c1cccnc1O2` the figure was 1.41%; with `O=C(c1cnn(-c2ccccc2)c1-n1cccc1)N1CCN(C2CCCCC2)CC1`, -29.3%; with `Cc1c(CN2CCC(CO)(Cc3cccc(C(F)(F)F)c3)CC2)c2ccccc2n1C`, -13.5%.

As for `O=C(CCn1c(=S)oc2ccccc21)Nc1cccc(F)c1`, the “hERG current change (%, negative = inhibition) at 1uM” value amounted to 11%. As for `Cc1ccc(S(=O)(=O)c2nc(S(=O)(=O)c3ccccc3)sc2N2CCN(CCO)CC2)cc1`, the “hERG current change (%, negative = inhibition) at 1uM” value is 0.609%. The same measure for `O=C(NCc1ccccc1)C1=C[C@@H](c2csc3ccccc23)C[C@@H](OCCCCO)O1`: -0.204%; for `C=CCn1c(Cc2c[nH]c3ccccc23)n[nH]c1=S`: 9.65%; for `Cc1cc(C(=O)CN2CCN(CC(=O)Nc3ccc(F)cc3)CC2)c(C)n1C1CC1`: -72.3%. `Cc1ccc(S(=O)(=O)N2CCCCC2C)cc1[N+](=O)[O-]` (centres unmarked): the “hERG current change (%, negative = inhibition) at 1uM” value is 8.71%. With `CCOc1cc(C(=O)N(CC)CC(=O)Nc2c(F)cccc2F)ccc1OCC(=O)N1CCCCC1` the figure was -4.04%; with `OC(c1ccccc1)(c1ccccc1)C1CCN(C(=S)NC2CCCC2)CC1`, 13.2%. In the case of `COc1ccc(CC(=O)OCC(=O)Nc2c(C)n(C)n(-c3ccccc3)c2=O)cc1`, the “hERG current change (%, negative = inhibition) at 1uM” value is recorded as -1.1%. Take `CCOc1ccccc1NC(=O)COC(=O)c1ccccc1SCC(=O)N1CCCC1`: the “hERG current change (%, negative = inhibition) at 1uM” value is 17.8%. With `O/N=C\c1ccc2noc(-c3ccc(Cl)cc3)c2c1`, the “hERG current change (%, negative = inhibition) at 1uM” value turned out to be 13.6%. With `Cc1ccc(N2C(=O)CSC2c2cccnc2)cc1F` (centres unmarked) the figure was 9.98%.

In the case of `C#CCOCCOCCOCCNc1nc(N2CCN(C(=O)Cn3cc(CCC[NH+]=C(N)N)nn3)CC2)nc(N2CCN(C(=O)[C@H](CCCC[NH3+])n3cc(CCC(=O)O)nn3)CC2)n1.[Cl-]`, the “hERG current change (%, negative = inhibition) at 1uM” value was determined as 6.78%. The same measure for `CC(C)(C)c1ccc(C(=O)Nc2nnc(Cc3c[nH]c4ccccc34)s2)cc1`: 8.76%. With `Cl.O=C1c2cccc3cccc(c23)C(=O)N1CC1CCN(CC(O)COCc2ccc3c(c2)OCO3)CC1` (centres unmarked) the figure was -31.1%.

On to `CC1(C)CC(=O)C(C=Nc2ccc3[nH]ncc3c2)=C(O)C1`, for which the “hERG current change (%, negative = inhibition) at 1uM” value amounted to 0.072%. With `COc1ccc(N2C(=O)CSC2c2ccc3c(c2)OCO3)cc1` (centres unmarked) the figure was 6.32%. The same measure for `Cc1ccsc1C(=O)NNC(=S)NC1CCCCC1`: 6.68%; for `Cc1noc(C)c1-c1ccc2nc[nH]c(=O)c2c1`: 3.53%. The same measure for `Fc1ccccc1-c1n[nH]c(=S)n1/N=C/c1c[nH]c2ccccc12`: 14.2%; for `Cc1ccc(NC(=O)C(=O)NCc2ccc(/C=N/NC(=O)c3c(C)nc4cc(C)ccn34)o2)cc1`: -41.6%. As to `CCOc1c(Br)cc(C2NC(=O)CCC2[N+](=O)[O-])cc1OC` (centres unmarked), the “hERG current change (%, negative = inhibition) at 1uM” value was determined as 8.77%. The same measure for `CCn1c(COc2ccccc2OC)nnc1SCC#N`: 7.88%; for `CCOC(=O)c1c(-c2ccccc2)cn2ccccc12`: -8.12%; for `COc1ccc(CCN2C(=O)N[C@@H](CCC(=O)O)C2=O)cc1`: 15.7%.

As for `Cc1ccc(C(C)(C)C)cc1S(=O)(=O)N1CC(=O)Nc2ccccc21`, the “hERG current change (%, negative = inhibition) at 1uM” value is 12.7%.

In the case of `O=C(CCSc1nnc2ccccn12)Nc1ccc2c(c1)OCO2`, the “hERG current change (%, negative = inhibition) at 1uM” value worked out at 13.5%. In the case of `Cc1nc2nc(SCC(N)=O)[nH]c2cc1Br`, the “hERG current change (%, negative = inhibition) at 1uM” value was determined as 15.8%. In the case of `CCOC(=O)/C(=N\Nc1cc(Cl)ccc1Cl)N1CCN(C)CC1`, the “hERG current change (%, negative = inhibition) at 1uM” value was 2.01%.
